# B1: hu28-vc0101: humanized anti-Notch antibody hu28 conjugated to mcValCitPABC-#54 (conjugate)
# heavy: EVQLVESGGGLVQPGGSLRLSCAASGFTFRDYGMTWVRQAPGKGLEWVAYISSGSNYIYYAEAVKGRFTISRDNAKNSLYLQMNSLRAEDTAVYYCARRGPFVLDAWGQGTLVTVSS[human IgG1 constant region left out]
# light: DIQMTQSPSSLSASVGDRVTITCKASQSINRYLHWYQQKPGKAPKLLIYNANGLQTGVPSRFSGSGSGTDFTLTISSLQPEDFATYYCLQHNTWPDTFGGGTKVEIKRTVAAPSVFIFPPSDEQLKSGTASVVCLLNNFYPREAKVQWKVDNALQSGNSQESVTEQDSKDSTYSLSSTLTLSKADYEKHKVYACEVTHQGLSSPVTKSFNRGEC
# How the values were obtained:
# [1] = tested on: MDA-MB-468 (breast cancer); experiment: In vitro cytotoxicity assay with anti-Notch ADCs (MTS); type: cell-based
# Experimental: (§1) The effects of anti-Notch ADCs were assessed on 1) cell lines endogenously expressing Notch protein: HCC2429 (lung cancer), OVCAR3 (ovarian cancer) and MDA-MB-468 (breast cancer), 2) cell lines engineered to over-express Notch protein: MDA-MB-468/hNotch and U2OS/hNotch, and 3) a negative control cell line (SW900) using an MTS cellular viability indicator (Promega, Madison, Wis.). These cell lines were cultured with increasing concentrations of anti-Notch ADCs comprising humanized anti-Notch antibodies, hu28 and hu75, and rat-human chimeric anti-Notch antibodies, ch28 and ch75, conjugated to various linker-payload combinations of the present invention. As a specificity control for the anti-Notch-ADCs, non-targeted control-ADCs (huNeg8.8-ADCs or ch2H6-ADCs) were also tested on the same cell lines. After four days, viability of each culture was assessed. IC50 values were calculated by logistic non-linear regression and presented as ng Ab/mL. The drug antibody ratio (DAR) is also provided.
# U2OS/hNotch = experiment: as above; type: cell-based
# Experimental: as §1
# N87 gastric xenografts = N87 gastric xenografts with anti-Notch ADCs; type: in vivo, nude (Nu/Nu) female mice
# Experimental: (§2) Humanized anti-Notch antibodies, hu28 and hu75, and rat-human chimeric anti-Notch antibodies, ch28 and ch75, were conjugated to various linker-payload combinations and tested in 37622A1 non-small cell lung cancer (NSCLC), HCC2429 lung cancer, MDA-MB-468 breast cancer and N87 gastric cancer xenograft models. For each model described below the first dose was given on Day 0. The tumors were measured at least once a week and their volume was calculated with the formula: tumor volume (mm^3)=0.5×(tumor width^2)(tumor length). The mean tumor volumes (±S.E.M.) for each treatment group were calculated having a maximum of 10 animals and a minimum of 6 animals to be included.
# Similar in vivo experiments were performed with the N87 gastric cancer cell line as described above. […] When the tumors reached a volume of 250 to 450 mm^3, the tumors were staged to ensure uniformity of the tumor mass among various treatment groups. The N87 gastric model was dosed intraveneously Q4dx4 with PBS vehicle, humanized anti-Notch ADCs, control huNeg-8.8 ADCs and cisplatin at the doses provided in Tables 16 and 17.
# 37622A1 NSCLC xenografts = experiment: 37622A1 NSCLC patient-derived xenografts with anti-Notch ADCs; type: in vivo, nude (Nu/Nu) female mice; conditions: for tumor volume (mm^3 ± SEM): 3 mg/kg Q4dx4
# Experimental: as §2
# The effects of anti-Notch ADCs were examined in immunodeficient mice on the in vivo growth of human tumor xenografts that were established from fragments of freshly resected 37622A1 NSCLC tumors obtained in accordance with appropriate consent procedures (Asterand). The 37622A1 NSCLC patient-derived xenografts were subcutaneously passaged in vivo as fragments from animal to animal in nude (Nu/Nu) female mice. When the tumors reached a volume of 150 to 300 mm^3, they were staged to ensure uniformity of the tumor size among various treatment groups. The 37622A1 NSCLC model was dosed intraveneously four times every four days (Q4dx4) with PBS vehicle, humanized anti-Notch ADCs, control huNeg-8.8 ADCs and cisplatin at the doses provided in Table 11.
molecule,measurement,setting,value
B1,IC50 (ng Ab/mL),[1],6545 ng Ab/mL
same,IC50 (ng Ab/mL),U2OS/hNotch,1330 ng Ab/mL
same,tumor volume (mm^3 ± SEM),"N87 gastric xenografts; Dose 1 mg/kg Q4dx4 iv, DAY 0",321 ± 21 mm^3
same,tumor volume (mm^3 ± SEM),"N87 gastric xenografts; Dose 1 mg/kg Q4dx4 iv, DAY 4",369 ± 18 mm^3
same,tumor volume (mm^3 ± SEM),"N87 gastric xenografts; Dose 1 mg/kg Q4dx4 iv, DAY 7",429 ± 43 mm^3
same,tumor volume (mm^3 ± SEM),"N87 gastric xenografts; Dose 1 mg/kg Q4dx4 iv, DAY 11",304 ± 30 mm^3
same,tumor volume (mm^3 ± SEM),"N87 gastric xenografts; Dose 1 mg/kg Q4dx4 iv, DAY 14",282 ± 25 mm^3
same,tumor volume (mm^3 ± SEM),"N87 gastric xenografts; Dose 1 mg/kg Q4dx4 iv, DAY 18",263 ± 24 mm^3
same,tumor volume (mm^3 ± SEM),"N87 gastric xenografts; Dose 1 mg/kg Q4dx4 iv, DAY 21",227 ± 23 mm^3
same,tumor volume (mm^3 ± SEM),"N87 gastric xenografts; Dose 1 mg/kg Q4dx4 iv, DAY 26",205 ± 32 mm^3
same,tumor volume (mm^3 ± SEM),"N87 gastric xenografts; Dose 1 mg/kg Q4dx4 iv, DAY 29",180 ± 30 mm^3
same,tumor volume (mm^3 ± SEM),"N87 gastric xenografts; Dose 1 mg/kg Q4dx4 iv, DAY 33",211 ± 43 mm^3
same,tumor volume (mm^3 ± SEM),"N87 gastric xenografts; Dose 1 mg/kg Q4dx4 iv, DAY 36",215 ± 42 mm^3
same,tumor volume (mm^3 ± SEM),"N87 gastric xenografts; Dose 1 mg/kg Q4dx4 iv, DAY 39",261 ± 54 mm^3
same,tumor volume (mm^3 ± SEM),"N87 gastric xenografts; Dose 1 mg/kg Q4dx4 iv, DAY 42",283 ± 52 mm^3
same,tumor volume (mm^3 ± SEM),"N87 gastric xenografts; Dose 1 mg/kg Q4dx4 iv, DAY 47",262 ± 64 mm^3
same,tumor volume (mm^3 ± SEM),"N87 gastric xenografts; Dose 1 mg/kg Q4dx4 iv, DAY 53",302 ± 75 mm^3
same,tumor volume (mm^3 ± SEM),"N87 gastric xenografts; Dose 1 mg/kg Q4dx4 iv, DAY 62",415 ± 111 mm^3
same,tumor volume (mm^3 ± SEM),"N87 gastric xenografts; Dose 1 mg/kg Q4dx4 iv, DAY 70",521 ± 135 mm^3
same,tumor volume (mm^3 ± SEM),"N87 gastric xenografts; Dose 3 mg/kg Q4dx4 iv, DAY 0",326 ± 13 mm^3
same,tumor volume (mm^3 ± SEM),"N87 gastric xenografts; Dose 3 mg/kg Q4dx4 iv, DAY 4",339 ± 11 mm^3
same,tumor volume (mm^3 ± SEM),"N87 gastric xenografts; Dose 3 mg/kg Q4dx4 iv, DAY 7",302 ± 10 mm^3
same,tumor volume (mm^3 ± SEM),"N87 gastric xenografts; Dose 3 mg/kg Q4dx4 iv, DAY 11",182 ± 14 mm^3
same,tumor volume (mm^3 ± SEM),"N87 gastric xenografts; Dose 3 mg/kg Q4dx4 iv, DAY 14",191 ± 5 mm^3
same,tumor volume (mm^3 ± SEM),"N87 gastric xenografts; Dose 3 mg/kg Q4dx4 iv, DAY 18",161 ± 7 mm^3
same,tumor volume (mm^3 ± SEM),"N87 gastric xenografts; Dose 3 mg/kg Q4dx4 iv, DAY 21",123 ± 15 mm^3
same,tumor volume (mm^3 ± SEM),"N87 gastric xenografts; Dose 3 mg/kg Q4dx4 iv, DAY 26",108 ± 16 mm^3
same,tumor volume (mm^3 ± SEM),"N87 gastric xenografts; Dose 3 mg/kg Q4dx4 iv, DAY 29",99 ± 14 mm^3
same,tumor volume (mm^3 ± SEM),"N87 gastric xenografts; Dose 3 mg/kg Q4dx4 iv, DAY 33",106 ± 17 mm^3
same,tumor volume (mm^3 ± SEM),"N87 gastric xenografts; Dose 3 mg/kg Q4dx4 iv, DAY 36",122 ± 22 mm^3
same,tumor volume (mm^3 ± SEM),"N87 gastric xenografts; Dose 3 mg/kg Q4dx4 iv, DAY 39",128 ± 23 mm^3
same,tumor volume (mm^3 ± SEM),"N87 gastric xenografts; Dose 3 mg/kg Q4dx4 iv, DAY 42",149 ± 25 mm^3
same,tumor volume (mm^3 ± SEM),"N87 gastric xenografts; Dose 3 mg/kg Q4dx4 iv, DAY 47",105 ± 19 mm^3
same,tumor volume (mm^3 ± SEM),"N87 gastric xenografts; Dose 3 mg/kg Q4dx4 iv, DAY 53",104 ± 30 mm^3
same,tumor volume (mm^3 ± SEM),"N87 gastric xenografts; Dose 3 mg/kg Q4dx4 iv, DAY 62",116 ± 47 mm^3
same,tumor volume (mm^3 ± SEM),"N87 gastric xenografts; Dose 3 mg/kg Q4dx4 iv, DAY 70",139 ± 54 mm^3
same,tumor volume (mm^3 ± SEM),"N87 gastric xenografts; Dose 5 mg/kg Q4dx4 iv, DAY 0",321 ± 8 mm^3
same,tumor volume (mm^3 ± SEM),"N87 gastric xenografts; Dose 5 mg/kg Q4dx4 iv, DAY 4",344 ± 14 mm^3
same,tumor volume (mm^3 ± SEM),"N87 gastric xenografts; Dose 5 mg/kg Q4dx4 iv, DAY 7",272 ± 7 mm^3
same,tumor volume (mm^3 ± SEM),"N87 gastric xenografts; Dose 5 mg/kg Q4dx4 iv, DAY 11",152 ± 13 mm^3
same,tumor volume (mm^3 ± SEM),"N87 gastric xenografts; Dose 5 mg/kg Q4dx4 iv, DAY 14",155 ± 13 mm^3
same,tumor volume (mm^3 ± SEM),"N87 gastric xenografts; Dose 5 mg/kg Q4dx4 iv, DAY 18",138 ± 11 mm^3
same,tumor volume (mm^3 ± SEM),"N87 gastric xenografts; Dose 5 mg/kg Q4dx4 iv, DAY 21",110 ± 9 mm^3
same,tumor volume (mm^3 ± SEM),"N87 gastric xenografts; Dose 5 mg/kg Q4dx4 iv, DAY 26",69 ± 16 mm^3
same,tumor volume (mm^3 ± SEM),"N87 gastric xenografts; Dose 5 mg/kg Q4dx4 iv, DAY 29",50 ± 13 mm^3
same,tumor volume (mm^3 ± SEM),"N87 gastric xenografts; Dose 5 mg/kg Q4dx4 iv, DAY 33",43 ± 14 mm^3
same,tumor volume (mm^3 ± SEM),"N87 gastric xenografts; Dose 5 mg/kg Q4dx4 iv, DAY 36",52 ± 16 mm^3
same,tumor volume (mm^3 ± SEM),"N87 gastric xenografts; Dose 5 mg/kg Q4dx4 iv, DAY 39",45 ± 14 mm^3
same,tumor volume (mm^3 ± SEM),"N87 gastric xenografts; Dose 5 mg/kg Q4dx4 iv, DAY 42",34 ± 15 mm^3
same,tumor volume (mm^3 ± SEM),"N87 gastric xenografts; Dose 5 mg/kg Q4dx4 iv, DAY 47",25 ± 14 mm^3
same,tumor volume (mm^3 ± SEM),"N87 gastric xenografts; Dose 5 mg/kg Q4dx4 iv, DAY 53",29 ± 16 mm^3
same,tumor volume (mm^3 ± SEM),"N87 gastric xenografts; Dose 5 mg/kg Q4dx4 iv, DAY 62",33 ± 18 mm^3
same,tumor volume (mm^3 ± SEM),"N87 gastric xenografts; Dose 5 mg/kg Q4dx4 iv, DAY 70",58 ± 30 mm^3
same,effect on growth of N87 gastric xenografts (in words),"N87 gastric xenografts; humanized ADCs, Q4dx4, doses of Tables 16 and 17",inhibited growth of N87 gastric xenografts in a dose-dependent manner
same,tumor volume (mm^3 ± SEM),37622A1 NSCLC xenografts; DAY 4,202 ± 16 mm^3
same,tumor volume (mm^3 ± SEM),37622A1 NSCLC xenografts; DAY 7,202 ± 15 mm^3
same,tumor volume (mm^3 ± SEM),37622A1 NSCLC xenografts; DAY 11,130 ± 11 mm^3
same,tumor volume (mm^3 ± SEM),37622A1 NSCLC xenografts; DAY 14,119 ± 11 mm^3
same,tumor volume (mm^3 ± SEM),37622A1 NSCLC xenografts; DAY 18,71 ± 6 mm^3
same,tumor volume (mm^3 ± SEM),37622A1 NSCLC xenografts; DAY 21,55 ± 6 mm^3
same,tumor volume (mm^3 ± SEM),37622A1 NSCLC xenografts; DAY 25,49 ± 6 mm^3
same,tumor volume (mm^3 ± SEM),37622A1 NSCLC xenografts; DAY 28,41 ± 7 mm^3
same,tumor volume (mm^3 ± SEM),37622A1 NSCLC xenografts; DAY 32,42 ± 13 mm^3
same,tumor volume (mm^3 ± SEM),37622A1 NSCLC xenografts; DAY 35,42 ± 11 mm^3
same,tumor volume (mm^3 ± SEM),37622A1 NSCLC xenografts; DAY 39,62 ± 26 mm^3
same,tumor volume (mm^3 ± SEM),37622A1 NSCLC xenografts; DAY 42,75 ± 34 mm^3
same,tumor volume (mm^3 ± SEM),37622A1 NSCLC xenografts; DAY 46,92 ± 44 mm^3
same,tumor volume (mm^3 ± SEM),37622A1 NSCLC xenografts; DAY 49,120 ± 63 mm^3
same,tumor volume (mm^3 ± SEM),37622A1 NSCLC xenografts; DAY 53,144 ± 67 mm^3
same,tumor volume (mm^3 ± SEM),37622A1 NSCLC xenografts; DAY 56,126 ± 51 mm^3
same,tumor volume (mm^3 ± SEM),37622A1 NSCLC xenografts; DAY 60,180 ± 85 mm^3
same,tumor volume (mm^3 ± SEM),37622A1 NSCLC xenografts; DAY 63,223 ± 111 mm^3
same,tumor volume (mm^3 ± SEM),37622A1 NSCLC xenografts; DAY 67,296 ± 152 mm^3
same,tumor volume (mm^3 ± SEM),37622A1 NSCLC xenografts; DAY 70,312 ± 162 mm^3
same,tumor volume (mm^3 ± SEM),37622A1 NSCLC xenografts; DAY 74,331 ± 160 mm^3
same,tumor volume (mm^3 ± SEM),37622A1 NSCLC xenografts; DAY 77,422 ± 210 mm^3
same,tumor volume (mm^3 ± SEM),37622A1 NSCLC xenografts; DAY 81,510 ± 248 mm^3
same,tumor volume (mm^3 ± SEM),37622A1 NSCLC xenografts; DAY 84,622 ± 322 mm^3
same,tumor volume (mm^3 ± SEM),37622A1 NSCLC xenografts; DAY −1,186 ± 13 mm^3
same,effect on growth of 37622A1 NSCLC xenografts (in words),"37622A1 NSCLC xenografts; Q4dx4, doses of Table 11",inhibited growth of 37622A1 NSCLC xenografts

# Source: US8828401B2, “Cytotoxic peptides and antibody drug conjugates thereof” (Pfizer Inc., priority 2011, dated 2014)
